Measured values: the supplement of paper PMC11417369
± gives the standard deviation of the averaged measurements. This is one part of the list.

system: PfAP2-I AP2 domain 3 (GST-tagged); experiment: gcPBM binding intensity (ln(normalized median fluorescence intensity)); higher = stronger DNA binding
How it was run: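 An Agilent 4 × 180k array of primer-extended double-stranded 36-bp intergenic genomic probes, with negative controls, was incubated for 1 h with GST-tagged P. falciparum DNA-binding domains expressed in E. coli. Alexa488 anti-GST antibody detected bound protein, scanned at 488 nm. Binding intensity is the highest Masliner-normalised natural-log median intensity across replicate spots of either probe orientation.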

Row | Sequence | gcPBM binding intensity (ln)
1 | TTTTTTGTTTGAATGGTGCATTTTGTAATTATATTT | 10.3 ± 0.41
2 | ATAATATCATAATATTGTACATATTTTATTTTAAAT [XGTACX_site1115] | 7.79 ± 0.38
3 | CAACTAACATATATTCAACACACATATACCTTCAAC [CACACA_site8988] | 7.72 ± 0.49
4 | AATACCTTTTAATAATGTACAAACAAAAATTAGAGA [XGTACX_site6850] | 7.72 ± 0.54
5 | TATATATTAAAAATAGTGCAAAATAATATATATATA [GTGCAC_site9716] | 10.78 ± 0.021
6 | ATATATATATATATATGTACATATTCATCTTATTCT [XGTACX_site1537] | 9.3 ± 0.4
7 | AAGGGGAGAAAAATAAACGAAATATATACATACATA [XGTACX_negctrl_site88] | 7.83 ± 0.42
8 | ACAAATAAATATATATGTACATATATTTTTTTATTT [XGTACX_site2989] | 7.64 ± 0.34
9 | TTTTATTTATATTATACACACAAGGAAAAAAAAAAA [CACACA_site7690] | 8.2 ± 0.77
10 | TTTATGCACGCGTGCACACACATATGAAAAAAGGTA [CACACA_site3315] | 10.9 ± 0.72
11 | TATGTTTAAATATATTGTACGCACGTATGTTTTTAA [XGTACX_site1108] | 8.57 ± 0.33
12 | ATATTAATTTTTATTACACACTCTCAATTTTTATTT [CACACA_site58] | 8.15 ± 0.55
13 | AAAATATACATAAACACACACAAAACGTTTAAGAAA [CACACA_site1071] | 7.84 ± 0.63
14 | GTTTAACTGTTTTATACACACAATGTATCCAATAAA [CACACA_site5612] | 7.9 ± 0.58
15 | TTTTAGTTAATTCATGCATGTAAAGTTTTATTTATA [TGCATGCA_site252] | 7.72 ± 0.54
16 | AAAAAAAAAAAAAAAGTACACACTTTTGCGTACATG [CACACA_site3097] | 8.71 ± 0.5
17 | ATGTCTATATATTAAGGTACACATATATGCTATTCA [XGTACX_site6008] | 7.71 ± 0.48
18 | GTATAATATGAACACACACACACACCCAAAAAAAAA [CACACA_site5152] | 8.33 ± 0.31
19 | TTATGGAACCCCATTCGTACATAAATATTTTATATA [XGTACX_site7112] | 7.68 ± 0.49
20 | ATACATATTAACAAGGTGCAAATGGATTTCATAAAA [GTGCAC_site9775] | 10.5 ± 0.33
21 | AATTGTTCGATATATGCACACAGTTTTGTTATTTTT [CACACA_site1615] | 8.78 ± 0.25
22 | TATTTATATTTATATACACACTATATAACTCAAACA [CACACA_site6611] | 7.8 ± 0.53
23 | CTAGCAAATACATACACACACACACGGATACCTATA [CACACA_site7609] | 8.07 ± 0.46
24 | TATATAACTTTATTTTTCTTTACTTATTTTATTTTA [GTGCAC_negctrl_site66] | 7.5 ± 0.5
25 | ATATATATATATATATGTACATATTATTAATAATAT [XGTACX_site6667] | 9.23 ± 0.48
